Some entries share one result that the patent states for a list of compounds. Some compounds share one range, which may span the group rather than tell each member.
What was measured:
[1] = molecular target: PKC alpha kinase (Homo sapiens, UniProt P17252); assay: PKC Alpha (coupled enzyme assay); type: biochemical; conditions: 130 μM ATP, 4.5 nM PKC alpha
Procedure: (§1) An assay buffer solution was prepared which consisted of 100 mM HEPES (pH 7.5), 10 mM MgCl2, 25 mM NaCl, 0.1 mM EDTA, 100 μM CaCl2 and 0.01% Brij. […] To 16 μL of this enzyme buffer, in a 384 well plate, was added 1 μL of VRT stock solution in DMSO. The mixture was allowed to equilibrate for 10 mins at 30° C. […] Ki values were calculated from initial rate data by non-linear regression using the Prism software package (Prism 4.0a, Graphpad Software, San Diego, Calif.).

[2] = molecular target: PKC theta kinase (Homo sapiens, UniProt Q04759); assay: PKC Theta I (coupled enzyme assay, absorbance at 340 nm); type: biochemical; conditions: 240 μM ATP, 18 nM PKC theta, absorbance read out
Procedure: as §1, with “mM EDTA” for “mM EDTA, 100 μM CaCl2”, “To 60” for “To 16”, “added 2” for “added 1”

Row | SMILES | Ki [1] | Ki [2]
1 | CCc1cnc(N)c(C(=O)c2nc(N3CCN[C@@H](CC(C)C)C3)ccc2C(F)(F)F)c1 [compound 486] | 50 to 500 nM | 50 to 500 nM
2 | C[C@@H]1CNCCN1c1ccc(C(F)(F)F)c(C(=O)c2cccnc2N)n1 [compound 484] | 50 to 500 nM | 50 to 500 nM
3 | CC(C)CC(C)(N)CNc1ccc(C(F)(F)F)c(C(=O)c2cccnc2N)n1 (centres unmarked) [compound 443] | 50 to 500 nM | < 50 nM
4 | CC(C)C[C@H]1CN(c2ccc(C(F)(F)F)c(C(=O)c3cccnc3N)n2)CC2(CCC2)N1 [compound 471] | 50 to 500 nM | < 50 nM
5 | CS(=O)(=O)CC(=O)N1CCCN(c2cccc(C(=O)c3cccnc3N)n2)CC1 [compound 17] | – | > 2800 nM
6 | CC(C)(F)CC1CN(c2ccc(C(F)(F)F)c(C(=O)c3cccnc3N)n2)CCN1 (centres unmarked) [compound 464] | – | < 50 nM
7 | CCC(N)(COc1ccc(C(F)(F)F)c(C(=O)c2cccnc2N)n1)c1ccccc1 (centres unmarked) [compound 440] | 50 to 500 nM | 50 to 500 nM
8 | Nc1ncccc1C(=O)c1cccc(-c2cc3ccccc3[nH]2)n1 [compound 298] | – | > 2800 nM
9 | Nc1ncc(Cl)cc1C(=O)c1nc(N2CCNC(c3ccccc3)C2)ccc1C(F)(F)F (centres unmarked) [compound 496] | 50 to 500 nM | < 50 nM
10 | NCc1ccc(-c2cccc(C(=O)c3cccnc3N)n2)cc1 [compound 300] | – | > 2800 nM
11 | Nc1ncccc1C(=O)c1nc(N2CCNC(C3CC3)C2)ccc1C(F)(F)F (centres unmarked) [compound 442] | 50 to 500 nM | < 50 nM
12 | CCC(N)(CNc1ccc(C(F)(F)F)c(C(=O)c2cccnc2N)n1)c1ccccc1 (centres unmarked) [compound 444] | 50 to 500 nM | < 50 nM
13 | CC(C)(O)CC1CN(c2ccc(C(F)(F)F)c(C(=O)c3cccnc3N)n2)CCN1 (centres unmarked) [compound 459] | 50 to 500 nM | < 50 nM
14 | Nc1ncccc1C(=O)c1nc(NCC2CCC(N)CC2)ccc1C(F)(F)F (centres unmarked) [compound 460] | – | 50 to 500 nM
15 | CN1CCCC1C(=O)N1CCCN(c2cccc(C(=O)c3cccnc3N)n2)CC1 (centres unmarked) [compound 18] | – | > 2800 nM
16 | Nc1ncccc1C(=O)c1nc(N2CCN[C@H](c3ccccc3)C2)ccc1C(F)(F)F [compound 447] | – | 50 to 500 nM
17 | NCC1CCC(CNc2ccc(C(F)(F)F)c(C(=O)c3cccnc3N)n2)CC1 (centres unmarked) [compound 451] | – | 50 to 500 nM
18 | Nc1ncccc1C(=O)c1nc(N2CC3CCC(C2)N3)ccc1C(F)(F)F [compound 466] | 50 to 500 nM | < 50 nM
19 | Nc1ncccc1C(=O)c1nc(N2CCNC(CC(F)(F)F)C2)ccc1C(F)(F)F (centres unmarked) [compound 491] | – | 50 to 500 nM
20 | Nc1ncccc1C(=O)c1cccc(N2CCCN(CC3CC3)CC2)n1 [compound 117] | – | 50 to 500 nM
21 | Nc1ncc(C(F)(F)F)cc1C(=O)c1cccc(N2CCCNCC2)n1 [compound 140] | 50 to 500 nM | 50 to 500 nM
22 | CCCC1CN(c2ccc(C(F)(F)F)c(C(=O)c3cccnc3N)n2)CCCN1 (centres unmarked) [compound 437] | 50 to 500 nM | < 50 nM
23 | Nc1ncc(Br)cc1C(=O)c1nc(N2CCC(N)CC2)cs1 [compound 134] | – | 50 to 500 nM
24 | CC#Cc1ccc(N2CCN[C@H](c3ccccc3)C2)nc1C(=O)c1cccnc1N [compound 465] | – | 50 to 500 nM
25 | Nc1ncccc1C(=O)c1cccc(N2CCCN(C(=O)C3CCCO3)CC2)n1 (centres unmarked) [compound 21] | – | > 2800 nM

Row | SMILES | Ki [1] | Ki [2]
26 | Cc1ccc(-c2ccc(N3CCNC(c4ccccc4)C3)nc2C(=O)c2cccnc2N)o1 (centres unmarked) [compound 469] | – | < 50 nM
27 | CC(C)C(=O)N1CCCN(c2cccc(C(=O)c3cc(Br)cnc3N)n2)CC1 [compound 71] | – | 50 to 500 nM
28 | CCN1CCCN(c2cccc(C(=O)c3cc(Br)cnc3N)n2)CC1 [compound 115] | – | 50 to 500 nM
29 | CC(N)(CNc1ccc(C(F)(F)F)c(C(=O)c2cccnc2N)n1)Cc1ccccc1 (centres unmarked) [compound 452] | – | 50 to 500 nM
30 | Nc1ncc(Cl)cc1C(=O)c1nc(N2CCNCC2)ccc1C(F)(F)F [compound 495] | – | < 50 nM
31 | CCC(=O)N1CCCN(c2cccc(C(=O)c3cccnc3N)n2)CC1 [compound 20] | – | 50 to 500 nM
32 | C[C@H]1CN(c2ccc(C(F)(F)F)c(C(=O)c3cccnc3N)n2)CCN1 [compound 478] | 50 to 500 nM | < 50 nM
33 | CC(C)(C)CCN1CCCN(c2cccc(C(=O)c3cc(Br)cnc3N)n2)CC1 [compound 76] | – | 50 to 500 nM
34 | CC(C)(C)OC(=O)NC1CCN(c2cccc(C(=O)c3cc(Br)cnc3N)n2)CC1 [compound 135] | – | > 2800 nM
35 | Cn1cc(-c2cccc(C(=O)c3cccnc3N)n2)cn1 [compound 292] | – | > 2800 nM
36 | C=Cc1ccc(N2CCN[C@H](c3ccccc3)C2)nc1C(=O)c1cccnc1N [compound 445] | – | 50 to 500 nM
37 | CCC1CN(c2ccc(C(F)(F)F)c(C(=O)c3cccnc3N)n2)CCN1 (centres unmarked) [compound 432] | 50 to 500 nM | 50 to 500 nM
38 | Nc1ncccc1C(=O)c1cccc(N2CCCN(C(=O)C3CCOCC3)CC2)n1 [compound 24] | – | > 2800 nM
39 | Nc1ncccc1C(=O)c1cccc(N2CCCN(C(=O)CC(F)(F)F)CC2)n1 [compound 23] | – | < 50 nM
40 | CC[C@H]1CN(c2ccc(C(F)(F)F)c(C(=O)c3cccnc3N)n2)C[C@H](C(C)C)N1 [compound 473] | 50 to 500 nM | < 50 nM
41 | CC(C)C[C@H]1CN(c2ccc(C(F)(F)F)c(C(=O)c3cc(Br)cnc3N)n2)CCN1 [compound 479] | 50 to 500 nM | < 50 nM
42 | Cc1sc(N2CCN[C@@H](CC(C)C)C2)nc1C(=O)c1cccnc1N [compound 505] | 50 to 500 nM | < 50 nM
43 | CC[C@@](CN)(CNc1ccc(C(F)(F)F)c(C(=O)c2cccnc2N)n1)c1ccccc1 [compound 462] | 50 to 500 nM | < 50 nM
44 | CCc1cnc(N)c(C(=O)c2cccc(N3CCCNCC3)n2)c1 [compound 105] | 50 to 500 nM | < 50 nM
45 | Nc1ncc(Br)cc1C(=O)c1cccc(N2CCC(N3CCCC3)CC2)n1 [compound 121] | – | 50 to 500 nM
46 | Cc1cc(C(=O)N2CCCN(c3cccc(C(=O)c4cccnc4N)n3)CC2)no1 [compound 25] | – | > 2800 nM
47 | CC1CCCCC1C(=O)N1CCCN(c2cccc(C(=O)c3cccnc3N)n2)CC1 (centres unmarked) [compound 93] | – | 50 to 500 nM
48 | C=C(F)c1ccc(N2CCN[C@@H](CC(C)(C)F)C2)nc1C(=O)c1cccnc1N [compound 506] | – | < 50 nM
49 | COCC(=O)N1CCCN(c2cccc(C(=O)c3cccnc3N)n2)CC1 [compound 28] | – | > 2800 nM
50 | CC(C)(CN)CNc1ccc(C(F)(F)F)c(C(=O)c2cccnc2N)n1 [compound 425] | – | 50 to 500 nM

Row | SMILES | Ki [1] | Ki [2]
51 | Nc1ccccc1-c1cccc(C(=O)c2cccnc2N)n1 [compound 297] | – | > 2800 nM
52 | Cc1ccc(-c2ccc(N3CCNCC3)nc2C(=O)c2cccnc2N)o1 [compound 470] | – | 50 to 500 nM
53 | CCCC1CN(c2ccc(C(F)(F)F)c(C(=O)c3cccnc3N)n2)CCN1 (centres unmarked) [compound 434] | 50 to 500 nM | < 50 nM
54 | Nc1ncc(Br)cc1C(=O)c1cccc(N2CCCN(CC3CC3)CC2)n1 [compound 113] | – | 50 to 500 nM
55 | Nc1ncccc1C(=O)c1nc(OCCC(N)c2ccccc2)ccc1C(F)(F)F (centres unmarked) [compound 427] | 50 to 500 nM | < 50 nM
56 | Nc1ncc(Br)cc1C(=O)c1ncc(C(=O)Nc2ccccc2)s1 [compound 65] | – | > 2800 nM
57 | Cc1ccccc1C(=O)N1CCCN(c2cccc(C(=O)c3cccnc3N)n2)CC1 [compound 89] | – | 50 to 500 nM
58 | CC(C)C[C@H]1CN(c2ccc(C(F)(F)F)c(C(=O)c3cccnc3N)n2)C[C@H](C)N1 [compound 483] | – | 50 to 500 nM
59 | C=Cc1cnc(N)c(C(=O)c2nc(N3CCN[C@@H](CC(C)C)C3)ccc2C(F)(F)F)c1 [compound 487] | – | < 50 nM
60 | CC(C)(C)[C@H](N)COc1ccc(C(F)(F)F)c(C(=O)c2cccnc2N)n1 [compound 422] | – | 50 to 500 nM
61 | Cc1ccsc1C(=O)N1CCCN(c2cccc(C(=O)c3cccnc3N)n2)CC1 [compound 27] | – | 50 to 500 nM
62 | Cc1ccsc1CN1CCCN(c2cccc(C(=O)c3cccnc3N)n2)CC1 [compound 106] | – | 50 to 500 nM
63 | Nc1ncc(Br)cc1C(=O)c1cccc(N2CCCN(C(=O)Cc3cccc(O)c3)CC2)n1 [compound 70] | – | 50 to 500 nM
64 | CC(C)N1CCCN(c2cccc(C(=O)c3cccnc3N)n2)CC1 [compound 116] | – | 50 to 500 nM
65 | CN(C)C1CCN(c2cccc(C(=O)c3cccnc3N)n2)CC1 [compound 137] | – | > 2800 nM
66 | Nc1ncccc1C(=O)c1nc(OCC(N)C2CCOCC2)ccc1C(F)(F)F (centres unmarked) [compound 433] | – | 50 to 500 nM
67 | COCC#Cc1cnc(N)c(C(=O)c2cccc(N3CCCNCC3)n2)c1 [compound 138] | – | 50 to 500 nM
68 | Nc1ncccc1C(=O)c1nc(N2CCNC(C(F)(F)F)C2)ccc1C(F)(F)F (centres unmarked) [compound 477] | – | 50 to 500 nM
69 | Nc1ncccc1C(=O)c1cccc(N2CCCN(CCc3ccccc3)CC2)n1 [compound 120] | – | 50 to 500 nM
70 | Cc1ccc(N2CCCNCC2)nc1C(=O)c1cccnc1N [compound 209] | – | 50 to 500 nM
71 | CC(C)(C)CN1CCCN(c2cccc(C(=O)c3cccnc3N)n2)CC1 [compound 126] | – | 50 to 500 nM
72 | NCC1CCCC(CNc2ccc(C(F)(F)F)c(C(=O)c3cccnc3N)n2)C1 (centres unmarked) [compound 429] | – | 50 to 500 nM
73 | CCc1cnc(N)c(C(=O)c2cccc(N3CCCN(C(C)C)CC3)n2)c1 [compound 133] | – | 50 to 500 nM
74 | CC(C)(C)C1CN(c2ccc(C(F)(F)F)c(C(=O)c3cccnc3N)n2)CCN1 (centres unmarked) [compound 456] | – | 50 to 500 nM

Reference: patent US8741931B2, “Kinase inhibitors” (priority 2007, dated 2014)
